Laboratory results: patent US11407819B2, “Compositions and use of a fibrinogen binding motif present in EFB and COA for therapeutics and vaccines against Staphylococcus aureus” (priority 2013, dated 2022)

Tested on: Coa-F, Coa-R0, Efb-N, Efb-O, Efb-A binding to Fg
Test: Inhibition by FBE5 scFv-Fc of Coa and Efb fragment binding to immobilized human Fg
Set-up: species or system Staphylococcus aureus
Settings: scFv-Fc 0.5, 5, 50 μg/ml
Description: To assess the inhibitory activity of anti-Coa scFv-Fc antibodies, 0.5 μg/well of human Fg was immobilized at 4° C. overnight in 50 mM Carbonate Buffer, pH 9.6. Indicated amounts (50, 5, 0.5 μg/ml) of scFv-Fcs prepared in 2% BSA+1×TBS+0.05% TWEEN® 20 were pre-incubated for 1 hour with a constant concentration of Coa or Efb fragments also prepared in 2% BSA+1×TBS+0.05% TWEEN® 20 at room temperature, 250 rpm shaking. Specifically, Coa-F, Coa-R0, Efb-N and Efb-O were at a fixed concentration of 10 nM; whereas Efb-A was at 750 nM. Fg-binding activity of each protein alone was also checked (no mAb control—0 μg/ml). The Fg-coated plate was blocked with 2% BSA-TBST and washed with PBST. […] Residual bound Coa and Efb fragments were detected with HRP-conjugated (HorseRadish Peroxidase-conjugated) α-GST-tag antibody, except for Efb-N, where an HRP-conjugated α-HIS-tag was used (see FIG. 18). HRP-tagged antibodies were diluted in 2% BSA+1×TBS+0.05% TWEEN® 20 and used at 1:10000 dilution. […] HRP signal was developed using […]™ OPD tablets using manufacturer's guidelines. Binding of Coa and Efb fragments to Fg (no mAb control) was set to 100% and residual binding to Fg of Coa and Efb fragments in the presence of different concentrations of antibodies was calculated and represented.
To assess the inhibitory activity of anti-Coa scFv-Fc antibodies, 0.5 μg/well of human Fg was immobilized at 4° C. overnight in 50 mM Carbonate Buffer, pH 9.6. Indicated amounts (0, 0.5, 5, and 50 μg/ml) of scFv-Fcs were pre-incubated for 1 hour with a constant concentration of Coa or Efb fragments. Specifically, Coa-F, Coa-R0, Efb-N and Efb-O were at a fixed concentration of 10 nM; whereas Efb-A was at 750 nM. […] Residual bound Coa and Efb fragments were detected with HRP-conjugated (HorseRadish Peroxidase-conjugated) α-GST-tag antibody, except for Efb-N, where an HRP-conjugated α-HIS-tag was used. Binding of Coa and Efb fragments to Fg (no mAb control) was set to 100% and residual binding to Fg of Coa and Efb fragments in the presence of different concentrations of antibodies was calculated and represented.

B1: FBE5-D10: VH SEQ ID NO: 78, VL SEQ ID NO: 108 (antibody, V domains shown)
VH: QVQLVQSGGGVVQPGRSLRLSCAASGFTFSNYGMHWVRQAPGKGLEWVAVISYDGSNKYYADSVKGRFTISRDNSKNTLYLQMNSLRAEDTAVYYCAKDSREQWLAHWGQGTLVTVSS
VL: QSVLTQPPSASGTPGQRVTISCSASSSNIGSNTVNWYQQLPGTAPKLLIYSNNQRPSGVPDRFSGSRSGTSASLAISGLQSEDEADYYCAAWDDSLNALVFGGGTKLTVL
inhibition of CoaF, CoaRO and EfbA binding to Fg: clear inhibition | inhibition of EfbN and EfbO binding to Fg: less efficient | inhibition of binding to Fg of all proteins tested (Coa-F, Coa-R0, Efb-N, Efb-O 10 nM, Efb-A 750 nM): dose dependent inhibition of all proteins tested
